# Reference: the supplement of paper PMC11417369
# The other results are listed elsewhere or left out.
# System: PfHDP1 homeodomain (GST-tagged)
# Experiment: gcPBM binding intensity (ln(normalized median fluorescence intensity)); higher = stronger DNA binding
# Method in brief: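 Binding intensity is the highest Masliner-normalised natural-log median intensity over replicate spots in either probe orientation. To obtain it, GST-tagged P. falciparum DNA-binding domains made in E. coli were incubated for 1 h on an Agilent 4 × 180k array of primer-extended double-stranded 36-bp intergenic genomic probes plus negative controls. Detection used Alexa488 anti-GST antibody with scanning at 488 nm.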
row,Sequence,gcPBM binding intensity (ln)
1,ATATAAATATATGTATGTACGCATGTATGTATCTAT [XGTACX_site3290],6.65
2,TATATGCATAATAACTGTACACAAATTGGGGTTGAT [XGTACX_site459],7.32
3,TTATTCTGACAGAATTGTACTAATGTCTTTAAAAAA [XGTACX_site1256],6.19
4,TGTGCCTATAAATTAACACACAGAAATATATAGAGA [CACACA_site818],6.57
5,TATTTGTTTGTTCGGGTGCTTACATATATTCTTATA [GTGCAC_site9972],7.08
6,TTAATTAGAAATCATACACACATATAAATAAATATA [CACACA_site6225],6.47
7,AAATTAAGTATATATTGTACACATAATATGATTGTA [XGTACX_site3083],6.19
8,TTATTTTCATATAGGTGTACATAAAAATATTCTTAT [XGTACX_site8861],6.46
9,TAAGTTTATTGAAATTGTACAAACATAAATGTAAAA [XGTACX_site162],6.75
10,TTATATTTTTTTTTTTCACACACATTTATATTGTAT [CACACA_site9025],6.69
11,TATACTAAGAAGTATTTACACACCAACAAGGCGAAA [CACACA_site8963],6.32
12,ATGTTCATTATATGCACACATATATATAAATGTAAT [CACACA_site2908],10.2
13,TATCATAAAAAATATACACACAAAGGATATATATAT [CACACA_site1571],8.18
14,TATATATATTTTATATGTACGTATGGAACAATATGA [XGTACX_site8167],6.77
15,TTTTCTATGCTAAACACACTCATTGTTACAAGTTTT [CACACA_site5531],6.78
16,TTATTTATTTTTTATACACACAATTATCATTTTAAG [CACACA_site22],6.82
17,TGTTGTAAATTAAAGACATGCACGTGAGAAAATATA [TGCATGCA_site285],11
18,TTTTCAATTAATAATACACACATGTATTTATTATTA [CACACA_site5774],6.67
19,AATTATATACATAAGTGTACATAATATATAAACATA [XGTACX_site793],6.28
20,ATATAAAAAAGAGGGAGTACTTGTAACAAAATAATA [XGTACX_site8679],6.84
21,GTACAGATGTAGTATGCATGTAATTATATATAAATT [TGCATGCA_site292],6.91
22,ACATGTTCATAATTTTGTACATATTTTTATGAACAT [XGTACX_site3976],6.82
23,ACGTAGTAGGTATTATGTACATATTTATAAGTATAA [XGTACX_site7336],6.61

row,Sequence,gcPBM binding intensity (ln)
1,ACATACGAAAATTGGAAGGATAGATAAAAAGAAAAT [CACACA_negctrl_site51],7.1
2,TAACTACTAGAAAAAACACACAAAAAGTAAATATAT [CACACA_site2740],6.81
3,TTCCCATGTAATATTAAACACACACCCATATAACAC [CACACA_site7905],7.22
4,ATTCTAATTACATATACACACAAAGGTTCATAACAA [CACACA_site3076],6.81
5,TATATAAATGTATACACACACATATAAATATAAATA [CACACA_site6751],6.66
6,ATAAACAGATCATATACATGCATATATGTAGAATAA [TGCATGCA_site157],6.34
7,TGATTTTTTTTTTTTTTTTTTTTTTTTTTAGTTTGC [CACACA_negctrl_site1057],5.74
8,TGTTTAACATTTATATGTACATATATTCACATATTA [XGTACX_site342],6.8
9,TACCAAATCACCCCTTGTACCCATTTTAAAATTTTC [XGTACX_site396],6.82
10,TAAAATATAAGACACACACACATATATTTATATATC [CACACA_site6248],6.9
11,TCTAAACAAATTAATAAAATAAGTATTCAAAATTAT [CACACA_negctrl_site731],6.16
12,AATATTTATTTTTTTGCACACATATTTTACATTTTA [CACACA_site3182],10.3
13,GTAAAATTTCGGATTTGTACACATGGCTATGAAAAA [XGTACX_site939],6.57
14,TCCCATAATATTAGTAGTACTATTAATATTTTCAGG [XGTACX_site4925],6.25
15,TTATGTTATAAATACACACACAAAAGAAAAAAAAAA [CACACA_site7414],6.79
16,TTCTCTATAAATGCTGCACACACATTTAATTATTTA [CACACA_site8828],8.06
17,ATTTCTTTTTTTTCTTGTACACATATTAAATTTATG [XGTACX_site734],7.23
18,AAAAAGCAGGATTATACACACAAATATTTATATGTT [CACACA_site6634],6.29
19,GCGTAGTTCGGAAGGGTGCTTTTTTGTTAATAAAAA [GTGCAC_site9592],6.13
20,TATAAACAGACGAAAACACACATATGTAAATATATA [CACACA_site4428],6.82
21,ATAAAAATAATATCATGTACATATGTGTATTGTATT [XGTACX_site1768],6.89
22,TACAAAAAGTTATACACACACGTACCTATAAATAGA [CACACA_site6571],6.57
23,CAGACCTCTTTGTCATGTACATAAAAAAATAAAGAA [XGTACX_site7887],6.62

row,Sequence,gcPBM binding intensity (ln)
1,TATTTCTTTTGGTTGGTGCATAAAATAATACAATAT [GTGCAC_site9916],10.5
2,ATTTGCTTTTATTTTACACACTTGCTCCTGTTGTAC [CACACA_site1088],7.81
3,AAAAAAAAATATATTGCACACCTCTCAATAAAAAAA [CACACA_site172],9.63
4,ACGAATTAAATGGATTAATATATATATGTATATTTA [CACACA_negctrl_site1512],6.16
5,CGCAACACTATTTGGGTGCTCTTCAAAAAAAAAAAA [GTGCAC_site9598],5.92
6,TTAAATACTTTTCGAAGTACATTATATATATAATAT [XGTACX_site7530],6.26
7,AGAATATATATAATAGTGCAATGTACAATGAACAAA [GTGCAC_site9577],8.58
8,TCCATTCTATTTTTTACACACGTATGTAAATATTAT [CACACA_site2686],6.9
9,ACTTTTTAATAATAATAATTATATATATATATATAT [TGCATGCA_negctrl_site459],9.14
10,ATATATATTTAATTTACACACAAAAAAAATTGTTGG [CACACA_site961],6.65
11,TATAAGAAAATAATGTGTACTAAATAATAAATGCAT [XGTACX_site1204],6.71
12,CCACATGAGATGATTACACACATATAAATATTTACA [CACACA_site6222],6.6
13,CGACTTTTAAAATATACACACATATATATATATATA [CACACA_site825],9.43
14,ATAAATGAAGATAAATTAAAAAAAAAAAAAAAAAAA [CACACA_negctrl_site992],6.15
15,ATAACATACATAACAACACACAATATTTATATGTAT [CACACA_site210],6.61
16,GAATGTATTCATAAATGTACTTATAATATTATAATA [XGTACX_site3466],6.58
17,AATACATAAATATTTTGTACATATTATATAAAATAT [XGTACX_site1627],6.64
18,CTTGTACCTAGAAATACACACAATTATATAACTTAT [CACACA_site2838],6.57
19,ATGAAAAAAAAAAAAAAAAAAAAAAAAAAAAAAAAA [CACACA_negctrl_site1405],5.99
20,GTTTATCACAGCCACGCACACATAATATCTGTATAT [CACACA_site5929],7.11
21,GATTATTAATAGTAACGTACATATGTTATAAAATAT [XGTACX_site5277],6.61
22,CTTATATTGTACAGTACACACCTTTATAATGTTATT [CACACA_site4280],7.11
23,TAGTAAAAACCAAAATGTACATGTGCCATTTTTTTA [XGTACX_site2630],6.15

row,Sequence,gcPBM binding intensity (ln)
1,AAATTCCACGAACACACACACATATAAATAAATAAA [CACACA_site6697],6.63
2,TATATTATACTAAGAAGTACAATATTTTTATTGTAA [XGTACX_site2810],5.85
3,TATAGTATTCTAAATGCATGTAAATTATGTATATAT [TGCATGCA_site931],6.46
4,ACTAATATGTATATATATATATATATATATATATAT [CACACA_negctrl_site141],9.37
5,TACATATTTAAATACTGTACTCAAAAGAATTGTGCA [XGTACX_site2250],6.31
6,ATCAAAAAAAAAAAAAGTACACAAAATTTTTTATTA [XGTACX_site7986],5.96
7,AAGGTTTAAAATTACTGTACAAATATAAATAAATAT [XGTACX_site3756],6.51
8,ATAATGAACAAAGTAGTGCACTTTCCTTATCTTTTC,10.7
9,TATATGTGTGTTATATGTACTTATATATATATATAT [XGTACX_site5570],9.21
10,TTATATATTTCTACTCATATTACAATGTGAGAAATA [CACACA_negctrl_site873],6.21
11,TAGATATATAATTTTTGTACGTAGTCGAATCTCAGA [XGTACX_site765],6.14
12,AACATTAAAAGGGATACACACATATAAATAAATAAT [CACACA_site489],6.83
13,CTCAACAAAATATGAGTGCATTGTTATTACATATAT,8.08
14,AAATATATATAAAAGTGTACATTTGTTATAATCAGT [XGTACX_site4822],6.71
15,CCAACTAAAAAGGAATGTACATAGTTATGGTTGGAA [XGTACX_site8762],6.98
16,TATATATATATATATATATATATATATATATGTTGT [TGCATGCA_negctrl_site24],9.44
17,ACTTTAAACAAAAAAAGTACTCTTTAATGAATATAT [XGTACX_site7176],6.21
18,CAATATTTTATTTAAGCATGCTCTAGGGTGTAAAAG [TGCATGCA_site1001],9.53
19,CAATTTCTCTTAATTTGTACATATATGTTATACAAA [XGTACX_site3231],6.73
20,ACATCAAGCAGACACACACACACACGCACACGCACA [CACACA_site6309],7.36
